Assay results published in the supplement of paper PMC10126150.
Values marked as one replicate rest on one cluster of the flow cell; about a third of the high ones do not repeat.

System: ATP
Assay: switch fluorescence ratio, 500 uM ATP over buffer (Cy3 cluster intensity, sum of 5 cycles each) (fold (ratio)); higher = stronger signal-on switching upon ATP binding; sequences stand for … in TCGTCGGCAGCGTCAGATGTGTATAAGAGACAGTTTTTTTTTTTTTTTTTTTTTTTTT…TC
Details: aptamer strand: ATP DNA aptamer (quencher-CACCTGGGGGAGTATTGCGGAGGAAGG + anchor), 100 nM annealed; ATP concentration: 500 uM; one replicate
In short: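 Between each of five buffer/ATP cycles, the flow-cell was stripped with NaOH and re-annealed. Each cycle imaged Cy3-labelled switching-strand clusters, annealed to 100 nM quencher-labelled ATP aptamer on a modified Illumina MiSeq flow-cell, first in selection buffer and then after 15 min with 500 uM ATP at 22 °C. The fluorescence ratio is summed target-cycle over summed buffer-cycle Cy3 intensity per cluster, averaged per switch-domain sequence, with clusters outside 100-1000 RFU excluded.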
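Note: ATP exposure 15 min at 22 °C before imaging.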

Sequence | switch fluorescence ratio
CCCTGTCTTA | 1.03
GAGAACACAT | 1.04
TGTGTACT | 1.02
ACGCTTTTGA | 1.05
TTGTCGTAGC | 0.954
ACGAGTGCTT | 0.993
TGGAAGAATG | 0.971
CATTTATA | 0.977
GGTGCCTTGG | 1.03
TAGTTGGTCC | 1.01
GCACTATCAG | 0.962
TAAAGTAGT | 1.03
CGCAGTAAAA | 1.08
ACCTCCCGGT | 1.02
GATTGGGTGC | 1.02
ATTCGGGGC | 0.986
CAAGTGGACC | 1.03
TGACTATTCT | 0.98
CTAATGTCGG | 1.02
TGCTATGTC | 0.79
AACCAAAAGG | 1.04
CAATCTCCGT | 1.12
ACATGTGATG | 1.01
ATGACACGG | 1.02
AAGTTGAGAC | 1.01
ATATTGTATC | 1.02

Sequence | switch fluorescence ratio
TGCGGACTGA | 1.06
GTACTAGGTG | 1.8
GATTGACCAC | 1.05
CAGGTTTATC | 0.95
TTTCCACAGC | 1.51
TCCTGAGTAG | 1.01
CTGGTCATTA | 0.981
TTTTCCAC | 1.01
GGGTTAGTCC | 0.938
TGGTCGGGAA | 0.98
TGCCGATTGA | 1.01
GGGCCGAGTC | 1
AGGATTTGGA | 1.04
GTGACACT | 1.02
ATCATTCCCA | 0.995
GCTTGGAAC | 0.952
GTGACGAAAA | 1.09
GGTGAGCCAT | 0.967
CCAAGTGTGT | 1.03
TTCGTAACTT | 0.986
GCATTTAGGT | 1
AAGGCAACGA | 1.04
GGGTTCTTAG | 0.975
ATTTTATTTC | 1
TTTCAATCGT | 0.925
ACATTTGACT | 0.992

Sequence | switch fluorescence ratio
GTCGTTCATA | 0.995
TCGGTCAATC | 1.79
TCTTCTTTCA | 1.03
TCACTTCACG | 1.22
GGGACTTATT | 1.01
TCACGGCCTT | 1.01
AGTTATGAAC | 1.04
CGGGGATGGT | 1.02
GGTCCGAGCA | 1.41
CAGTTTCTTT | 0.98
AAGGGGGTG | 1.03
TCCCGGGCCC | 1.03
GACGGTCCAG | 1
TGTGCCCA | 1.03
CAATCTCGGT | 0.997
ATCTTTCAAG | 1.07
ACTTTCGGA | 1.04
AGGTAGCGTA | 0.969
TGTCGGGAT | 0.97
GTACTGAACT | 1.28
AATTCAGGAA | 0.978
AATTGGGAAT | 0.997
CCGAGAGTAT | 1.25
CCCCAGCAAG | 6.3
CTATGTAATC | 1.46
ATACGTCTTT | 0.975

Sequence | switch fluorescence ratio
TCCAATGTTG | 1.01
TGGACCTGCC | 2.51
GGTCCTTAGA | 0.98
CGTATTCCAG | 0.991
GCGTCCGCTC | 1.77
GGCGAAAAAT | 0.988
TGAACAAAC | 1.05
GCGGTTATCT | 1
TTCACGAAGC | 1.08
GACCGATGGT | 0.995
GTTCTGGTCA | 1.04
CGCTAGTTAG | 1.01
ATTATCTATT | 1.01
AGACTTCGTT | 0.967
AGGCTATTT | 0.988
AATGGAGA | 1.03
TTTTGGTCGT | 1.01
CAAATCATTT | 1.03
AGGTACTGAC | 1.22
TGCGTATAGG | 1.02
TTGTGGTACC | 1.06
CGAGAAACGA | 1.03
CACGAGCCTT | 1.08
ATCCACACGG | 1.2
CTAGTTGAGC | 1
GCGCAAGAT | 1.66

Sequence | switch fluorescence ratio
CTCTACATG | 1.03
TCCAATTGCT | 1.05
TCGGGACCGG | 0.986
AACAGAAATG | 0.995
GTTCGGGCGC | 1.04
CCTCAAATCA | 1.37
CACGTAGACG | 1.02
TTTTGTCACC | 0.988
GAGTAGAGTC | 1.01
TCGTCCGAGC | 1.56
TATCGAGGGG | 0.951
GGTCCACAGC | 1.03
TAGTTATCGC | 1.01
AACTGCAGCG | 1.05
ACGTCTGAGC | 1.02
GAGAATACGG | 1.13
GAAAGGCACC | 1.03
AGATTTGGGT | 0.997
GGTTCCAGGG | 1.07
TGGGTTGTAG | 0.983
CTAAAACCTT | 1.16
CTGAGCGCAA | 3.83
TCAGTTGAAT | 0.986
GGGCAACGGA | 1.15
AGAAACTTAC | 1.51
TAGTAGGTA | 1.09

Sequence | switch fluorescence ratio
CTGACCGGCC | 1.5
AATCACGCAA | 4.39
ACCGGACAGC | 1.34
GTTCACGACC | 1.1
ATGGAAGATT | 0.973
AGGGCGTAAA | 1.02
TTAGTAAAGT | 0.991
GACCCTAGGC | 0.979
CCCATGGATT | 1.03
GAATTCCTCT | 1.02
CTAGCGGTGG | 1.02
CTTAGTTTA | 1.02
TTTGGGTCCG | 0.979
CTGAGATAAC | 1.06
TTTACCTGCG | 1.08
TCCGTTCATC | 1.17
GCTCTAAGA | 1.08
TGAAAGCTCC | 1.55
CGCGTGTGTT | 1.05
CGGTAGCCGG | 1.01
GTGATGTTTG | 0.979
TAACTTCGAT | 1.01
GCGCGGCTAA | 1.01
TCTGTTTCG | 1
TTGGCCGGGC | 0.996
GTGTATTCTT | 0.997

Sequence | switch fluorescence ratio
TTAGTGCAGT | 1.05
AGTAGGTCTA | 0.918
TTGCAAATAT | 2.97
TCTAGAGTCG | 0.989
AATGTTCGCG | 1.01
ATCGGACCCC | 1.09
TGGTAGAGGT | 0.96
AGTGTCTAGT | 1.01
TTCAAAAAAT | 1.16
CATGTCTCGT | 0.999
CAAGATAAGT | 1.02
CACTGAAGCC | 1.05
CGATACGTAG | 1.05
GGGCATGACA | 0.999
AATCTAGGTA | 1.03
AAACCCTTAC | 2.93
AGGGAATCT | 1.01
TCCGGTATTC | 1.42
ACATTTACT | 1.24
TGCTAAATAA | 0.994
AGCAGGTCAT | 0.987
AACCATTGTT | 0.998
TAGTACCAGT | 1.04
TAAGAAATAA | 0.99
AGGTATGAGG | 0.993
GGCGCGCCGT | 0.947

Sequence | switch fluorescence ratio
CTCGAATTGA | 0.984
GGCGCTAATT | 1.02
TTGATTTCCC | 1.03
GGTCGAGGAT | 1
CGTATATTT | 1.02
CTAATAAGAA | 1.01
TTCGCCTTCC | 2.67
CCTGTGGTTA | 0.993
GATTATACTG | 1.08
AGCACGGCGT | 1.04
TGACATAGAA | 0.97
GCCCCAGGAG | 4.33
TTCGGCTCAC | 1.06
CGGGTTCGAT | 0.98
GGTGTACGCT | 1.02
GCGCAACGTC | 1.14
ACGTCGGATG | 0.992
CCGACCTTTT | 1.46
TCTAGCAGAT | 1.04
